The values that follow come from PubChem BioAssay AID555 (SRMLSC, 2006).

Some of the results follow. Further columns of the screen follow, without active or inactive calls. The list favours compounds with an active or inconclusive main result.

In the test the test system is mevalonate kinase [Streptococcus pneumoniae D39]. The test is described as follows: S. pneumoniae MK inhibitors, primary screen, biochemical, PK/LDH-coupled NADH absorbance (AID 555). To be noted: purified MK, PK/LDH-coupled NADH absorbance 340 nm; measured here: pilot screen replicates; at 10 µM; stronger effect = higher value.
In turn, `COc1ccc(CN2CCN(C(=O)Cc3ccccc3)CC2)c(OC)c1` returned an inhibition of 3.5%.
